Data on 26 molecules can be found in PubChem BioAssay AID485344 (National Center for Advancing Translational Sciences (NCATS), 2010).

Molecules are shown by their SMILES. About 6,900 (2%) of roughly 340,000 compounds were called active. Cut-off read from the data, not from the text of the source: active = inhibition above about 30%; inactive = below that, where a call was filed. The list shows a part of the results, in another mix than the full data. Where no call is shown, the source filed none.

The target of the assay is D(2) dopamine receptor (Homo sapiens) (UniProt P14416). Kind of assay: HTS Assay for Allosteric Antagonists of the Human D2 Dopamine Receptor: Primary Screen for Antagonists. Note: 0% is about no effect. To be noted: HEK293 TREx D2 cells, calcium flux, dopamine EC80; at 10 µM; stronger effect = higher value. In outline: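 In this primary screen, negative modulation is detected by tracking calcium flux after an EC80 dopamine challenge in inducible HEK293 T-REx D2 cells preexposed to test compound for 180 s.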
UniProt P14416, sequence (P14416 whole entry, looked up): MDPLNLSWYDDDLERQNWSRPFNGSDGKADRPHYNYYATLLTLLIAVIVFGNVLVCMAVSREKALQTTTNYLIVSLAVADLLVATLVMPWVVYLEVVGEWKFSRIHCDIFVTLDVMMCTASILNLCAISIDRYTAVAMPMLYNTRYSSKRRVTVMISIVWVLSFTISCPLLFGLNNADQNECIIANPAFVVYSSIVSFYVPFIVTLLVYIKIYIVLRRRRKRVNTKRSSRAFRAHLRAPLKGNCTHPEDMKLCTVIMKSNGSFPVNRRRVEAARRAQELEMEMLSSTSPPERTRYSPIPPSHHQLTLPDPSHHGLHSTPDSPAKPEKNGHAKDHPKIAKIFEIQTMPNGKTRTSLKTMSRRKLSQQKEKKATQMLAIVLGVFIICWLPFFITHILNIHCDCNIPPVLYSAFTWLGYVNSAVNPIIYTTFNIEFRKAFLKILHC
In general terms: Calcium assays in cells follow changes in intracellular calcium, usually with a dye or a luminescent sensor.
Broadly, the inhibition is the drop in the measured response relative to a control, in per cent. Regarding `CCCSc1ncc(Cl)c(C(=O)Nc2sc3c(c2C(=O)OC)CCCC3)n1`, the inhibition was 6.14%.
With `O=C(C1CCN(S(=O)(=O)c2ccc(Br)s2)CC1)N1CCN(c2cccc(C(F)(F)F)c2)CC1` the figure was -0.23%; with `O=C(Nc1ccccc1)c1nc[nH]c1C(=O)O`, -6.71%.
Consider `Cc1cc(C)c2c(CC(=O)N(Cc3ccc(Cl)cc3)Cc3ccco3)coc2c1`, for which the inhibition is -12.4%.
As for `Cc1c(-c2ccccc2)nc2c(Cl)cccc2c1C(=O)OCC(=O)c1ccc(F)cc1`, the inhibition is -7.67%.
For `COc1cc(OC)c(N(C)C(=O)c2c(C)oc3ncn(CC(C)C)c(=O)c23)cc1Cl` the value was -0.849%.
With `CCOC(=O)CSc1nc2cc3c(cc2c(=O)n1Cc1ccc(C(=O)NCCc2ccc(OC)c(OC)c2)cc1)OCO3` the figure was 1.25%.
For `Cc1ccc(NC(=O)Cn2cc(S(=O)(=O)Cc3ccc(F)cc3)c3ccccc32)cc1Cl` the value was -7.57%; for `CCOc1ccccc1C(=O)N(Cc1sccc1C)C1CCS(=O)(=O)C1` (stereo unspecified), -3.23%.
On to `COc1ccc(-c2cc(C(F)(F)F)nc(SCC(=O)NCCc3ccccc3)n2)cc1`, for which the inhibition is 0.427%.
Turning to `COc1ccc(C(=O)c2sc(Nc3ccccc3)nc2N)cc1`, the inhibition is -15.1%.
With `CC(=O)c1cccc(NC(=O)CN(c2cc(C)cc(C)c2)S(=O)(=O)c2c(C)noc2C)c1` the figure was -6.7%; with `N#Cc1c(C(F)(F)F)cc(-c2cccs2)nc1SCC(=O)Nc1cccc(Cl)c1`, 0.0823%; with `COc1ccc(-c2onc(C)c2C)cc1S(=O)(=O)N(C)Cc1ccccc1`, 0.95%.
With `C/C(=N\NC(=O)c1ccccn1)c1ccc(C(=O)O)s1` the figure was active: 59.3%; with `CCOC(=O)N1CCC(NCCNC(=O)c2ccc(F)cc2)CC1`, active: 66.2%; with `COc1ccc(NC(=O)c2ccco2)cc1NC(=O)c1cc(OC)c(OC)c(OC)c1`, -5.1%.
With `COc1ccc(S(=O)(=O)N2CCCCC2)cc1NC(=O)Cc1cccs1` the figure was active: 37.9%; with `CCCNC(=O)C1CCC(Cn2c(=O)c3sccc3n(CC(=O)NCc3cccc(OC)c3OC)c2=O)CC1` (stereo unspecified), 1.21%.
Regarding `O=C1C=C(c2cccc(CO)c2)C[C@@H](c2ccc(Cl)cc2)C1`, the inhibition was active: 52.1%.
With `CCOc1ccc(N2CC(NC(=O)C3CCCC3)CC2=O)cc1` (stereo unspecified) the figure was -17.3%; with `Cc1cc(C)c2c(NC(=O)c3ccccc3)c(C(=O)Nc3ccc(F)cc3)sc2n1`, 6.27%; with `COc1cccc(N2CC(NC(=O)c3cc(Cl)ccc3OC)CC2=O)c1` (stereo unspecified), -16.5%.
With `COc1ccc(OC)c(NS(=O)(=O)c2ccc(N3CCCCS3(=O)=O)cc2)c1` the figure was 8.27%; with `Cc1ccc(C(=O)N/C(=C\c2ccc(Cl)cc2)C(=O)NC2CCCCC2)cc1`, -9.12%.
For `Cc1cccc(NC(=O)Cn2c(=O)n(CCCCCC(=O)NCc3ccc4c(c3)OCO4)c(=O)c3sccc32)c1` the value was -0.758%.
